# Reference: paper PMC4336329 (PLoS ONE, 2015)
# The campaign covered roughly 310,000 compounds. About 2,200 (0.71%) showed an effect of 50% or more. The effect is printed as a negative number. This is one part of the list.
# Target: human ether-à-go-go-related gene (hERG) potassium channel (human, UniProt Q12809)
# Assay: primary screen, population patch clamp on CHO cells stably expressing hERG
# Sequence of human ether-à-go-go-related gene (hERG) potassium channel (Q12809 whole entry, looked up): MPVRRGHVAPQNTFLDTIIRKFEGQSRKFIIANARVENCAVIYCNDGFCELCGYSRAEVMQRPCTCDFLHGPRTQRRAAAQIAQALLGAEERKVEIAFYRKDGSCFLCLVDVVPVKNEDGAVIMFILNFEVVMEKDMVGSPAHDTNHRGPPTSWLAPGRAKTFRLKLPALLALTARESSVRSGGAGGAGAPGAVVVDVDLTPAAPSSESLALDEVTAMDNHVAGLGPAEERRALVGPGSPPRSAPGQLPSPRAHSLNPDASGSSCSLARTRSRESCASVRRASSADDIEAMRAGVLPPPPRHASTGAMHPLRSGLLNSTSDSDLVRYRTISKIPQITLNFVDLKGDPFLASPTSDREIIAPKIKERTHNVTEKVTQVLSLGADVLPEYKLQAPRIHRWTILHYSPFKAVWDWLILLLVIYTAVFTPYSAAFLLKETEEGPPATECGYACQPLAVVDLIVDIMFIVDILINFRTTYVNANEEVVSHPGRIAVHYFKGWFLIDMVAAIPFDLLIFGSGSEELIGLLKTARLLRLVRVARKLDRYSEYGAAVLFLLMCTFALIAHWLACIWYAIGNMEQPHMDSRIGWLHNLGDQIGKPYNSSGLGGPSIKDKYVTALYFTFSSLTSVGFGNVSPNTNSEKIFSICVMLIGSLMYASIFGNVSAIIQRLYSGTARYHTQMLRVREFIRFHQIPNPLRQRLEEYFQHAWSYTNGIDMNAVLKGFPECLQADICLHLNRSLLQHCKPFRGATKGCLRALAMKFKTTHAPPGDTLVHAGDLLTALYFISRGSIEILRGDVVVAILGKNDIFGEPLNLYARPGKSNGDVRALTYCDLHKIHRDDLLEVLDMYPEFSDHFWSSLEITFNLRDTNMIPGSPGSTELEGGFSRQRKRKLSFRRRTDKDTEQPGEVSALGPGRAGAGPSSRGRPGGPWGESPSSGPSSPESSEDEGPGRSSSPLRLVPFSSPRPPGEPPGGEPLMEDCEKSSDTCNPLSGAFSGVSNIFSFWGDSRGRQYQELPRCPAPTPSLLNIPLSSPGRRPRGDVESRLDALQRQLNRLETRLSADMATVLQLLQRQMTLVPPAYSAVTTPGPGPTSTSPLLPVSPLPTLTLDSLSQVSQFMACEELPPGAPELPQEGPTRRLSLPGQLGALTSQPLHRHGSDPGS
row,SMILES,"hERG current change (%, negative = inhibition) at 1uM [%]"
1,CC(=C/C(=O)O)/C(=C/c1ccccc1)C(=O)O,7.52
2,COC(=O)c1ccc(OC)c(OC)c1Cl,6.44
3,O=C(NCC1CCCO1)c1onc(CSc2cccc3ccccc23)c1C(=O)O (stereo not shown),16.9
4,COc1ccccc1NC1=Nc2cccc3cccc1c23,9.51
5,CCCCCN(C(=O)NC(=O)Nc1ccccc1C)S(=O)(=O)c1ccccc1,16.4
6,CCC(C)NC(=O)CN(C1CCCCC1)S(=O)(=O)c1ccc(F)cc1 (stereo not shown),9.45
7,C=CCn1c(SCC(=O)N2CCCC2=O)nc2sc(CC)cc2c1=O,-20
8,O=C(Oc1ccccc1Cl)c1ccc2c(=O)n3c(nc2c1)CCC3,13
9,C=CCn1c(SCC(=O)N2CCc3ccccc3C2)nc2sc(CC)cc2c1=O,10.8
10,CC1(c2ccc(OC(F)F)cc2)NC(=O)N(/N=C/c2c(O)ccc3ccccc23)C1=O (stereo not shown),9.49
11,Cc1c(O)c(S(=O)(=O)c2ccccc2)c(=O)n(-c2ccccc2)c1-c1ccccc1,9.12
12,CCOc1ccc(S(=O)(=O)N2CCN(C(=O)CCOc3ccccc3C)CC2)cc1,0.0579
13,O=C(NCCNC(=O)c1cccs1)c1ccco1,19.1
14,COCCOC(=O)C1=C(C)N=C2SCCC(=O)N2C1c1cccs1 (stereo not shown),11.3
15,CCCCc1cc(=O)oc2cc(OCC(=O)N3CCC(C(N)=O)CC3)ccc12,5.53
16,COc1cc(C)c(C)cc1S(=O)(=O)N1CCN(Cc2ccccc2)CC1,3.77
17,Nc1cc(C(=O)Nc2ccc(Cl)cc2)ccc1N1CC2CC(C1)c1cccc(=O)n1C2 (stereo not shown),-10.9
18,COc1ccc(C2OC3=C(Nc4cc(C)c(C)cc4N3)C2=O)cc1 (stereo not shown),10.1
19,COc1ccc(-n2nnnc2SCC(=O)Nc2ccc3c(c2)OCCO3)cc1OC,6.6
20,COc1ccc(CCNC(=O)c2ccc(NS(=O)(=O)c3ccc4[nH]c(=O)[nH]c4c3)cc2)cc1,9.03
21,O=C(NCC1CCCCC1)c1ccco1,15.6
22,CC1(C)Cc2c(sc3nnn(CC(=O)Nc4ccccc4)c(=O)c23)CO1,2.47

row,SMILES,"hERG current change (%, negative = inhibition) at 1uM [%]"
1,O=C(CCC(=O)Nc1ccccc1Cl)NNC(=O)c1ccccc1[N+](=O)[O-],5.21
2,O=C(Nc1nc2c(Cl)cccc2s1)c1ccc(Br)o1,-5.88
3,Cc1nc(-c2ccccc2)sc1-c1nc(-c2ccncc2)ncc1S(=O)(=O)c1ccccc1,12.3
4,Cn1c(=O)c2c(SCC(=O)N3CCOCC3)nc(-c3ccccc3Cl)nc2n(C)c1=O,8.94
5,CCCNC(=O)C1CC2Cn3c(nc4ccccc43)C2N1C (stereo not shown),14.9
6,Cn1c2ccccc2c2nnc(SC3CCOC3=O)nc21 (stereo not shown),3.35
7,O=C(NN1CCOCC1)c1cccc(Cl)c1,6.61
8,COc1ccc(NC(=O)c2c3c(nc4ccccc24)CCC3)cc1,9.52
9,COc1ccc(-c2csc(NC(=O)CSc3nc(C)cs3)n2)cc1,7.73
10,Cc1ccc2nc(/C(C#N)=C/c3ccc(-c4cccc([N+](=O)[O-])c4)o3)[nH]c2c1,5.05
11,Cc1ccc2nc(SCC(=O)NCc3ccco3)c(C)cc2c1,7.03
12,O=C(N/N=C/c1cccc(Cl)c1)C1CCCC1,10.6
13,Cc1nc2c(C)[n+](CC(=O)c3ccccc3)ccc2n1C.[Br-],16.1
14,COC(=O)c1c(-c2cccs2)csc1NC(=O)c1cccnc1,11.6
15,CCc1nnc(NC(=O)CSc2nc3ccccc3c(=O)n2CCCOC)s1,13.4
16,CSc1nnc(NC(=O)c2ccco2)s1,15.7
17,Cc1cc(C)n(-c2ccccc2C#N)n1,3.5
18,COc1ccc(S(=O)(=O)NCc2ccncc2)cc1NC(=O)c1ccc(Cl)cc1,-26.8
19,O=c1cc(CO)oc(C(Nc2cccc([N+](=O)[O-])c2)c2ccccn2)c1O (stereo not shown),7.31
20,Cc1ccc(N(CC(=O)NC2CCCCC2)C(=O)c2ccc(C)s2)cc1,7.77
21,Cc1ccc(/C=N/Nc2nc3ccccc3[nH]2)s1,-9.53
22,COc1ccccc1NC(=O)c1ccc(NC(=O)c2cc3c(s2)CCC3)cc1,17.3

row,SMILES,"hERG current change (%, negative = inhibition) at 1uM [%]"
1,CCC(=O)Nc1cc2c3c(c1)CCC(=O)N3CCC2,-4.28
2,O=C(NCc1ccco1)c1sc2cc(F)ccc2c1Cl,5.09
3,CCOC(=O)Cn1c(S(=O)(=O)Cc2ccccc2Cl)nc(-c2ccccc2)c1-c1ccccc1,7.23
4,CC(C)(C)Nc1nc2ccc([N+](=O)[O-])cc2o1,3.84
5,O=C(COC(=O)c1cccnc1Cl)NCc1cccs1,10.9
6,O=C(Cc1ccc(Cl)cc1)Nc1nc2ccccc2[nH]1,-14.5
7,O=C(Cc1ccccc1)NNC1CC(=O)N(c2ccc(Br)cc2)C1=O (stereo not shown),20.7
8,CCOc1ccc(N=C(C)c2ccccc2O)cc1,10.3
9,Cc1cc(C(=O)O)ccc1[N+](=O)[O-],8.73
10,CCCOc1ccc(N2C(=O)CC(N(CCc3ccc(OC)cc3)C(=O)c3cccc(F)c3)C2=O)cc1 (stereo not shown),5.86
11,COc1ccc(CC(=O)Nc2ccc3c(c2)C(=O)N(CCC(=O)O)C3=O)cc1,14.7
12,O=C(NCc1ccccn1)c1ccc(OC2CCN(Cc3cccs3)CC2)cc1,20.4
13,COc1ccc2ccccc2c1/C=N/NC(=O)c1sc(N)c(C#N)c1C,9.38
14,O=C(O)CCCn1cc(NC(=O)COc2cccc(Cl)c2)cn1,-12.7
15,COc1cccc(CNC(=S)Nc2ccc(Cl)cc2C)c1,7.96
16,COc1ccc(OC)c(C(=O)c2ccc(C(=O)N3CCCCC3)cc2)c1,0.398
17,Cn1c(Cn2c(=O)sc3ccccc32)nnc1SCC(=O)Nc1ccccc1,0.718
18,Cc1ccc(OCCSc2nnc(-c3ccncc3)n2C)cc1,7.39
19,Cc1ccc(C(=O)NC(=S)Nc2ccc(NC(=O)c3cccs3)cc2)cc1[N+](=O)[O-],8.27
20,CC(C)CN(CC(C)C)C(=O)COn1nnc2ccc(S(=O)(=O)N3CCOCC3)cc21,-5.2
21,CN(C)c1ccc(NC(=O)COC(=O)CCC(=O)c2ccc(F)cc2)cc1,-10.4
22,COc1ccc(CN(C)C(=S)Nc2ccc(OC(F)F)cc2)cc1,-12.3

row,SMILES,"hERG current change (%, negative = inhibition) at 1uM [%]"
1,CCOc1ccc(NC(=O)NC2CCCCCCC2)cc1,13.1
2,COc1ccc(-n2c(SCC(=O)N3CCOCC3)nc3ccccc3c2=O)cc1,9.44
3,CN(C)c1ccc(C(=O)OCC(=O)Nc2ccc(N3CCOCC3)cc2)cc1,10.6
4,COc1cc(/C=C2\C(=N)N3N=C(C(C)C)SC3=NC2=O)ccc1OCCOc1ccc(NC(C)=O)cc1,12.1
5,Cc1ccc(NC2Sc3ccccc3NC2=O)cc1Cl (stereo not shown),12.9
6,CCOc1cc(/C=N/NC(=O)c2cc(-c3cccc(OC)c3)nc3ccccc23)ccc1O,12.1
7,COC(=O)C1=C(c2c(C)noc2C)C[C@@H]2CC[C@H]1N2C(=O)NCCO,14.8
8,CN(Cc1cc2ccccc2[nH]c1=O)C(=O)C1CCCCC1,4.83
9,COc1cc(CN2CCC(Cc3ccccc3)CC2)c([N+](=O)[O-])cc1OC,4.65
10,CCC(C)(C)NC(=O)C(C(C)C)N(CC1CCCO1)C(=O)CNS(=O)(=O)c1ccc(F)cc1 (stereo not shown),6.78
11,CCCc1nc(SCC(=O)N2CCc3ccccc32)c2c(C)c(C)sc2n1,14.5
12,Cc1nnc(SCC(=O)Nc2nccs2)n(N)c1=O,19.7
13,N/C(=N\OS(=O)(=O)c1ccc2ccccc2c1)c1cccnc1,11.9
14,CCN(CC(=O)NC1CCS(=O)(=O)C1)S(=O)(=O)c1ccccc1Cl (stereo not shown),7.76
15,CC(=O)N1CC=CC1(CC(C)C)C(=O)NCCN1CCOCC1 (stereo not shown),16.8
16,Cc1cccc(C(=O)OCC(=O)N(CC(C)C)c2c(N)n(Cc3ccccc3)c(=O)[nH]c2=O)c1O,17.1
17,COc1ccc(/C(O)=C/C(=O)C(=O)Nc2c(C)n(C)n(-c3ccccc3)c2=O)cc1,19.9
18,CCc1noc(C)c1C(=O)Nc1cccc(S(=O)(=O)N2CCCCCC2)c1,-3.12
19,Cc1cccc(Cc2c(C)nc3c(C(=O)N4CCN(Cc5ccc6c(c5)OCO6)CC4)cnn3c2C)c1,0.189
20,Nc1ncnc2nc(SCC(=O)Nc3cccc(C(F)(F)F)c3)[nH]c12,7.71
21,CCOc1ccc(C(=O)NC(=S)Nc2ccc(N3CCOCC3)c(Cl)c2)cc1[N+](=O)[O-],12.8
22,N/C(=N\OC(=O)Cc1ccccc1)c1ccccc1Cl,10.6
